This is one part of the list. Values were computed here from the reads of four pooled replicates and scatter widely.

The target in this assay is T1, Pho4 (S. cerevisiae) (UniProt P07270).
T1 sequence: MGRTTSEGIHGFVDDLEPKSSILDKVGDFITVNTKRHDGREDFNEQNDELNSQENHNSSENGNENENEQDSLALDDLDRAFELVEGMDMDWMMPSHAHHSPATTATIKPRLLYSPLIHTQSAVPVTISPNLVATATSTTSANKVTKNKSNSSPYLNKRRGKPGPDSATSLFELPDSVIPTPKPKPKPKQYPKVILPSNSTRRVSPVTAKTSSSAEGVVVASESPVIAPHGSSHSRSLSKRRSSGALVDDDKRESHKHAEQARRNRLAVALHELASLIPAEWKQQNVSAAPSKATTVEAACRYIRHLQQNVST
Briefly: relative binding free energy (BET-seq); higher = weaker binding. The settings on record: reference: library average.
As for CATAACACGTGGTAGG, the “relative binding free energy” value was -0.293 kJ/mol.
The same measure for TTTAGCACGTGAGGGG: 0.544 kJ/mol; for GGTGGCACGTGTCCGG: -0.628 kJ/mol.
The figure for TTGGTCACGTGGGGCA is -0.377 kJ/mol; for TTTGACACGTGGGTCC it is 0.251 kJ/mol.
The same measure for ATTTTCACGTGTTAGA: 1.46 kJ/mol.
In the case of GAAGACACGTGAAGGG, the “relative binding free energy” value was 1.3 kJ/mol.
Turning to TGACGCACGTGTAAGG, the “relative binding free energy” value is -0.335 kJ/mol.
Consider CATAGCACGTGGGTGA, for which the “relative binding free energy” value is -0.92 kJ/mol.
As to TGTATCACGTGTCGAA, the “relative binding free energy” value came out at 0.544 kJ/mol.
The figure for TTGTACACGTGTAAAA is 1.38 kJ/mol; for TGGCTCACGTGCGGAT it is 0.837 kJ/mol; for GTGTGCACGTGTCGTC it is 0.377 kJ/mol.
Consider TGGCTCACGTGTGTGC, for which the “relative binding free energy” value came out at 1 kJ/mol.
The same measure for CGTTTCACGTGTCGAT: 1 kJ/mol.
The figure for GGTGTCACGTGACAGT is 0.46 kJ/mol; for CATGTCACGTGGTTGG it is 0.502 kJ/mol; for TTATACACGTGTGAGA it is 0.209 kJ/mol.
The same measure for TGCGTCACGTGTAGCG: 0 kJ/mol; for GTTTGCACGTGTCCGT: 0.293 kJ/mol.
As for TGGTCCACGTGGGTGT, the “relative binding free energy” value was -0.502 kJ/mol.
The figure for TATATCACGTGCGTGA is 0.586 kJ/mol.
The figure for GTATTCACGTGGGGAC is 0.879 kJ/mol; for GTTGTCACGTGGCTGG it is 0.209 kJ/mol.
The same measure for GTGTGCACGTGTGCCG: -0.0418 kJ/mol; for GGTAGCACGTGGCGTG: -0.753 kJ/mol.
In the case of AATAACACGTGTGGGT, the “relative binding free energy” value was determined as 0.335 kJ/mol.
Consider TAAGACACGTGACGGT, for which the “relative binding free energy” value came to 0.92 kJ/mol.
The figure for TGAGGCACGTGCGCTG is -0.92 kJ/mol; for TGTAGCACGTGCTGGT it is -0.335 kJ/mol; for AGGATCACGTGGAGTA it is 0.335 kJ/mol.
The figure for TAGGTCACGTGAATAC is 1.84 kJ/mol; for GTCTGCACGTGTGTGA it is 0.418 kJ/mol; for GTGTTCACGTGTAATT it is 1.42 kJ/mol.
The figure for TGGGTCACGTGCAAGT is 0.377 kJ/mol.
With ATTTTCACGTGGAATT, the “relative binding free energy” value was determined as 1.09 kJ/mol.
The figure for TACTGCACGTGTTTTA is 0.0418 kJ/mol.
For the sequence TATATCACGTGGTATT, the “relative binding free energy” value came out at 0.167 kJ/mol.
The figure for TATATCACGTGTTTCG is 0.377 kJ/mol.
The figure for TTGATCACGTGATGTC is 1.51 kJ/mol; for CAATACACGTGGTTTG it is 0.0418 kJ/mol; for AGTGGCACGTGGATGT it is -0.0418 kJ/mol.
The figure for TAGCGCACGTGTTGAG is -0.209 kJ/mol; for TCTTCCACGTGGGTGG it is -0.586 kJ/mol.
As for ATCCGCACGTGTGGTG, the “relative binding free energy” value was -0.251 kJ/mol.
The figure for GGGGACACGTGCGATT is 0.586 kJ/mol; for TGTGTCACGTGAGTCG it is 1.34 kJ/mol.
The figure for ACTGTCACGTGTGAGG is 0.753 kJ/mol.
With TTTGCCACGTGGTTGT, the “relative binding free energy” value is 0.167 kJ/mol.
In the case of TGGTACACGTGAGAAG, the “relative binding free energy” value worked out at 1.17 kJ/mol.
The figure for GATTTCACGTGGGGTA is 0.962 kJ/mol; for ACATTCACGTGATTGG it is 2.13 kJ/mol; for GTACGCACGTGTAGGG it is -0.209 kJ/mol.
The same measure for GTATTCACGTGAAAGG: 1.8 kJ/mol; for TTTATCACGTGTAGAA: 0.502 kJ/mol.
As to TTTTACACGTGTGATA, the “relative binding free energy” value stood at 0.92 kJ/mol.
The figure for GATTTCACGTGTTTGT is 1.55 kJ/mol; for GGTTACACGTGAGGCT it is 1.55 kJ/mol.
The same measure for GGATTCACGTGGGGAG: 0.795 kJ/mol.
The same measure for TACGGCACGTGGAATT: 0.502 kJ/mol; for GTATTCACGTGATCGG: 1.21 kJ/mol.
With TGGTCCACGTGGAATT, the “relative binding free energy” value worked out at 0.628 kJ/mol.
The figure for TTGGACACGTGAGGGC is 0.628 kJ/mol.
The same measure for AGAGTCACGTGATATT: 0.879 kJ/mol.
The same measure for GGTGTCACGTGGAATA: 0.711 kJ/mol.
With AGGTGCACGTGTAATA, the “relative binding free energy” value is 0.46 kJ/mol.
The same measure for ATGGACACGTGGGCTA: -0.837 kJ/mol; for TGCGACACGTGGGTTT: -0.335 kJ/mol; for TATTGCACGTGCTTGG: 0.0837 kJ/mol.
The figure for CGGGGCACGTGGTATA is -0.795 kJ/mol; for ATATTCACGTGGCAGT it is 0.502 kJ/mol; for AGGGGCACGTGTTGAG it is -0.335 kJ/mol.
The figure for GATTGCACGTGTAGTA is 0.544 kJ/mol.

These data come from the BET-seq Pho4 binding data (Le et al. 2018).
